Experimental data from the RNAGym collection of RNA variant scans (doi:10.7554/elife.90254).
Read counts are not given, so values of variants with three or more changes are uncertain.

B1: LINE1-mini (parent)
chain: GGCAGAGCUCAACACAGCGUGGCAAAGUGGCUGUGGCUAGACUGCC

Variants of: B1
Test: self-cleavage, relative activity (ratio to wild type); higher = more cleavage; in vitro, sequencing; the parent is a self-cleaving ribozyme

Variant | self-cleavage
GGCAGAGCUCAACACAGGCCGGCAAAGUGACUGUGGCUAGACUGCC [C18G G19C U20C G30A] | 0.09
GGCAGAGCUCAACACAGGGUGGGAAAGUGUCUGUGGCUAGACAUCC [C18G C23G G30U U43A G44U] | 0.01
GGCAGAGCUCAACACAGGGUGGCAAAAUCGCUGUGGCUAGACUGCC [C18G G27A G29C] | 0.71
GGCAGAGCUCAACACAGGUUGGCAAAGUGGCUGUGGCCAGACUGCC [C18G G19U U38C] | 0.17
GGCAGAGCUCAACACAGGGUGGCAAAGUGGCUGUGGCUAGAGUUGC [C18G C42G G44U C45G] | 0.04
GGCAGAGCUCAACACAGGGUAGCAAAGUGGCUGUGGCUAGAAUGCC [C18G G21A C42A] | 0.04
GGCAGAGCUCAACACAGGGUGGUAUAGUGGCUGUGGCUAGACUGCC [C18G C23U A25U] | 0.19
GGCAGAGCUCAACACAGGGUGACAUAGUGGCUGUAGCUAGGCUGCC [C18G G22A A25U G35A A41G] | 0.02
GGCAGAGCUCAACACAGGGUUGAAAAGUGGCUGUGGCUAGACUGCC [C18G G21U C23A] | 0.8
GGCAGAGCUCAACACAGGGUGGCAAAGUUGCUGUGGCUAGAUUGCC [C18G G29U C42U] | 0.14
GGCAGAGCUCAACACAGGCUGGCAAAGAGGCUGUGGCUAGACUGCU [C18G G19C U28A C46U] | 0.88
GGCAGAGCUCAACACAGGGUGGCAAAGUGGCUGUGGCUAGAGUCCC [C18G C42G G44C] | 0.03
GGCAGAGCUCAACACAGGAUGGCAAAGUGGCUCUGGCUAGACUGCA [C18G G19A G33C C46A] | 0.01
GGCAGAGCUCAACACAGGGUGUCAAAGUAGCUGUGGCUAUACUGCC [C18G G22U G29A G40U] | 0.15
GGCAGAGCUCAACACAGGAUGGCAAAGGGGCUGUGGCUAGACUGCC [C18G G19A U28G] | 1.39
GGCAGAGCUCAACACAGGGUGGCAAAGUGGAUGUGGCUCCACUGCC [C18G C31A A39C G40C] | 0.01
GGCAGAGCUCAACACAGGGUCGGAAAGUGGCUUUGGCUAGACUGCC [C18G G21C C23G G33U] | 0.07
GGCAGAGCUCAACACAGGGUGUCAAAGUUGCUGUGGCUAGACUGCC [C18G G22U G29U] | 1.72
GGCAGAGCUCAACACAGGGUGGCAAACUGGCUAUGGCUAGACUGCG [C18G G27C G33A C46G] | 0.04

Variant | self-cleavage
GGCAGAGCUCAACACAGGGUGGCAAAGUGCCAGUGGCUAGACUGCC [C18G G30C U32A] | 0.38
GGCAGAGCUCAACACAGGGUGGCAAACCGGCUAUGGCUAGACUGCC [C18G G27C U28C G33A] | 0.01
GGCAGAGCUCAACACAGGGUGGAAAAGUGGCUGUGGCUACACUGCC [C18G C23A G40C] | 0.03
GGCAGAGCUCAACACAGGUUGGCAGAGUGGCUGUGGCUAGAAUGCC [C18G G19U A25G C42A] | 0.05
GGCAGAGCUCAACACAGGGUGUCAAAGUGACUGUGGCUAGACUGCC [C18G G22U G30A] | 1.19
GGCAGAGCUCAACACAGGGUGCCAAAGUAGCUGUGGUUAGACUGCC [C18G G22C G29A C37U] | 0.26
GGCAGAGCUCAACACAGGGUGGGAAAGUGUCUGUGGCUAGACUGUC [C18G C23G G30U C45U] | 0.21
GGCAGAGCUCAACACAGGUUCGAAAAGUGACUGUGGCUAGACUUCC [C18G G19U G21C C23A G30A G44U] | 0.07
GGCAGAGCUCAACACAGGGUGUCAAAGUGGCUGUGGCUAGAAUGCC [C18G G22U C42A] | 0.01
GGCAGAGCUCAACACAGGGUGGCAAAGUUGCUGUGGCUAGACUGCG [C18G G29U C46G] | 0.37
GGCAGAGCUCAACACAGGGUGGCAAAGUGUCUGUGGAUAGAAUGCC [C18G G30U C37A C42A] | 0.03
GGCAGAGCUCAACACAGGUUGGCAAAGUGGCUGUGGCUUGACUGCC [C18G G19U A39U] | 0.35
GGCAGAGCUCAACACAGGGUGUCUCAGUGGCUGUGGCUAGACUGCC [C18G G22U A24U A25C] | 0.09
GGCAGAGCUCAACACAGGGUCGCAGAGUGGAUGUGGCUAGACUUCC [C18G G21C A25G C31A G44U] | 0.03
GGCAGAGCUCAACACAGGGUGGCAAAUUGGCUGUGGCUACACUGCC [C18G G27U G40C] | 0.04
GGCAGAGCUCAACACAGGGUCGCAAAGGGGCUGUGGCGAGGCUGCC [C18G G21C U28G U38G A41G] | 0.01
GGCAGAGCUCAACACAGGGUACCAAAGUGGCUGUGGCUAGACUGCC [C18G G21A G22C] | 0.58
GGCAGAGCUCAACACAGGGUGGUAAAGUGGCUGUGCGUAGACUGCC [C18G C23U G36C C37G] | 0.05
GGCAGAGCUCAACACAGGCUGGCAAACUAGCUGUGGCUCGACUGCC [C18G G19C G27C G29A A39C] | 0.39

Variant | self-cleavage
GGCAGAGCUCAACACAGGGUGGUAAAAUGGCCGUGGCUAGACUGCU [C18G C23U G27A U32C C46U] | 0.03
GGCAGAGCUCAACACAGGCUGGCAAAGUGUCUGUGGCUAGACUGCC [C18G G19C G30U] | 0.7
GGCAGAGCUCAACACAGGGUGGCAAAGUUGCUGUGGCUAGCCUGCC [C18G G29U A41C] | 0.1
GGCAGAGCUCAACACAGGGUCGCAAAUUGACUGUGGCUAGACUGCC [C18G G21C G27U G30A] | 0.24
GGCAGAGCUCAACACAGGGUGACAAAGUGGCUGUGACUAGACUGCC [C18G G22A G36A] | 0.02
GGCAGAGCUCAACACAGGGUGGCAAAGUGCCUGUGGCUAUACUGCC [C18G G30C G40U] | 0.2
GGCAGAGCUCAACACAGGGUGGUAAAGUGGCUGUGGCUAGACUGUC [C18G C23U C45U] | 0.08
GGCAGAGCUCAACACAGGUUGGCAAAGUGGCUGUGGCUAGACUACC [C18G G19U G44A] | 0.07
GGCAGAGCUCAACACAGGGUGACAAAGUGGCUGUGGCUAGACUGGU [C18G G22A C45G C46U] | 0.1
GGCAGAGCUCAACACAGGGUAGCGAAGUGGCUGUGGCUAGACUGCC [C18G G21A A24G] | 2.32
GGCAGAGCUCAACACAGGGUGGCAAAUUGGCUGCGGCUAGAAUGCC [C18G G27U U34C C42A] | 0.07
GGCAGAGCUCAACACAGGGUGGAAAAGUGGCUGUGCCUACACUGCC [C18G C23A G36C G40C] | 0.01
GGCAGAGCUCAACACAGGGUGGCAAAUUGGUUGUGGCUAGACUGCC [C18G G27U C31U] | 0.04
GGCAGAGCUCAACACAGGAUGGCAAAGUGGAUGUGGCUAGACUGCC [C18G G19A C31A] | 0.14
GGCAGAGCUCAACACAGGAUGGUAAAGUGGCUGUGGCUAGAAUGCC [C18G G19A C23U C42A] | 0.02
GGCAGAGCUCAACACAGGGUUACAAAGUGGCUGUGGCUAGACUGCC [C18G G21U G22A] | 0.22
GGCAGAGCUCAACACAGGGUGUCAAAGUGGCUGAGGCUAAACUGCC [C18G G22U U34A G40A] | 0.01
GGCAGAGCUCAACACAGGGUGGCAAAGUGCCUGUGGCUAGACUGCG [C18G G30C C46G] | 1.46
